In PubChem BioAssay (NCI):
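These data come from cells grown in 96-well plates and exposed to compound for 48 hours at five concentrations. GI50 marks 50% less growth. TGI denotes the concentration required for complete inhibition of growth.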

System: NCI-H322M lung
Assay: NCI-60 cell line screen, 48 h

**Q.** With O=P(Nc1ccccc1)(Oc1ccccc1)N(CCCl)CCCl (configuration not stated) as the compound, how does the TGI read?
**A.** Its TGI is greater than 100 µM.

**Q.** For N/C(=N\Nc1ccc(Cl)cc1)c1cnccn1, which TGI is on record?
**A.** The TGI was greater than 100 µM.

**Q.** How did the TGI turn out when CC(=O)O[C@H]1C(=O)[C@@]2(C)[C@H]([C@H](OC(=O)c3ccccc3)[C@]3(O)C[C@H](OC(=O)[C@H](O)[C@@H](NC(=O)c4ccccc4)c4cccc(N(C)C)c4)C(C)=C1C3(C)C)[C@]1(OC(C)=O)CO[C@@H]1C[C@@H]2O was run?
**A.** Its TGI is greater than 75 µM.

**Q.** What does the source list for CC(=O)/C=C/C1=C(c2csc3ccccc23)c2ccccc2CC1?
**A.** GI50: 23.5 µM; TGI: 86.4 µM

**Q.** For O=c1[nH]nc(Cc2ccccc2)n1/N=C/c1cccnc1, which TGI is on record?
**A.** The TGI was greater than 100 µM.

**Q.** With Cn1c(-c2ccccc2)c(/C=C/C2=[N+](C)c3ccccc3C2(C)C)c2ccccc21 as the compound, how does the GI50 read?
**A.** The GI50 was 2.69 µM.

**Q.** What about the TGI of the same compound?
**A.** Its TGI is 9.04 µM.

**Q.** CN1CCc2c(sc3ncn(Nc4ccc(Cl)cc4)c(=N)c23)C1 was tested. Which TGI did it give?
**A.** The TGI was greater than 100 µM.

**Q.** For COc1ccc2c(c1)NC1(CCN(CCCC(=O)c3ccc(F)cc3)CC1)N=N2, which TGI is on record?
**A.** Its TGI is greater than 100 µM.

**Q.** CC(=O)O[C@H]1C(=O)[C@@]2(C)[C@H]([C@H](OC(=O)c3ccccc3)[C@]3(O)C[C@H](OC(=O)[C@H](OC(=O)OC[C@H]4COC(C)(C)O4)[C@@H](NC(=O)c4ccccc4)c4ccccc4)C(C)=C1C3(C)C)[C@]1(OC(C)=O)CO[C@@H]1C[C@@H]2O was tested. Which GI50 did it give?
**A.** The GI50 was 0.053 µM.

**Q.** What about the TGI of the same compound?
**A.** Its TGI is greater than 33.3 µM.

**Q.** Which TGI does the source give for NC(=O)c1cccc(OCC(O)CO)c1 (configuration not stated) here?
**A.** The TGI was greater than 100 µM.

**Q.** COc1ccc2c(c1OC)C(C(Cl)(Cl)Cl)N1CCc3cc4c(cc3C1=C2)OCO4 (configuration not stated) was tested. Which TGI did it give?
**A.** Its TGI is greater than 100 µM.

**Q.** What does the source list for CCCCCC[C@@H](C)NC(=O)c1ccc(Nc2nc3ccccc3c3occc23)cc1?
**A.** GI50: 21.9 µM; TGI: 76.1 µM

**Q.** Which TGI does the source give for c1ccc(SC23C4C5C6C4C2C6C53)nc1 (configuration not stated) here?
**A.** The TGI was greater than 100 µM.

**Q.** Which TGI does the source give for Cc1ccc(N=Nc2c(O)ccc3cc(S(=O)(=O)O)ccc23)cc1 here?
**A.** The TGI was greater than 100 µM.

**Q.** What does the source list for O=C(CI)Nc1ccc(O)c2ccccc12?
**A.** GI50: 7.08 µM; TGI: 21.3 µM

**Q.** Which TGI does the source give for COc1cc(C(C)c2cc3c(cc2OCCNC(=O)COc2cc4c(cc2C(C)c2cc(OC)c(OC)c(OC)c2)OCO4)OCO3)cc(OC)c1OC (configuration not stated) here?
**A.** The TGI was greater than 100 µM.

**Q.** With C/C=C(\C)C(=O)O[C@@H]1CC(C)(C)CC2C3=CCC4[C@]56CC[C@](O)(OC5)C(C)(C)C6CC[C@@]4(C)C3(C)CC[C@]21C(=O)O (some centres not stated) as the compound, how does the TGI read?
**A.** Its TGI is greater than 100 µM.
